# Screen size: about 48,000 compounds; about 450 (0.94%) were called active. The inconclusive results got no clear call from the source; some entries with a clear call stand among them for comparison. Calls follow the shape of the dose curve; as a rule, active = well fitted inhibition curve with a large enough effect; inconclusive = small, poorly fitted or top-dose-only effect; inactive = no such curve, though single readings can be large or run the other way. A potency beside an inconclusive call is a rough fit, not a confirmed value.
# Experiment: Primary qHTS for Identification of Small Molecule Inhibitors of Huntingtin Promoter Activity; also: nearly all actives have a fitted effect of over 50% in size
# Details: HEK293 HTT promoter firefly luciferase reporter (activity 0% = vehicle and -100% = no light), 24 h; series mostly up to 57.5 µM
# Method in brief: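 Quantitative HTS used concentration series of up to 57.5 uM final on HEK293 luciferase reporter cells, 24 h at 37 degrees C. Readout was Dual-Glo firefly luminescence.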
# Potency is read from the fitted curve at half-maximal effect; tags tell the direction and shape of the fitted curve.
row,Compound,Potency
1,COc1ccccc1N1CCN(S(=O)(=O)CCNC(=O)COc2ccc(C(C)C)cc2)CC1,"inconclusive: 39.8 µM [inhibitor, single point]"
2,COc1ccc(-c2nc(SCc3cc(=O)c4cc(C)ccc4[nH]3)n[nH]2)cc1,"inconclusive: 22.4 µM [inhibitor, single point]"
3,Cc1ccccc1C(=O)Nc1c(C)nc(Nc2ccccc2)nc1Nc1ccccc1,"inconclusive: 39.8 µM [inhibitor, single point]"
4,CC(=O)N1c2ccc(S(=O)(=O)NCC3CCC(C(=O)Nc4cccc(C)c4C)CC3)cc2CC1C (stereo not drawn),"inconclusive: 22.4 µM [inhibitor, single point]"
5,Cc1cccc(N2C(=O)CSC23C(=O)N(CC(=O)NCc2ccccc2Cl)c2ccccc23)c1 (stereo not drawn),"inconclusive: 35.5 µM [inhibitor, single point]"
6,O=C(Cn1c(SCCOc2ccc(Cl)cc2)nc2ccccc21)N1CCCCC1,"inconclusive: 39.8 µM [inhibitor, partial curve, poor fit]"
7,COc1cccc(C2=CC(c3cc(Br)ccc3F)n3nnnc3N2)c1 (stereo not drawn),"inconclusive: 11.2 µM [inhibitor, partial curve]"
8,Cc1ccc(/C=C/c2onc(C)c2S(=O)(=O)N2CCC(C(=O)N3CCN(c4ccccc4F)CC3)CC2)cc1,inactive
9,O=C(NCCc1ccccc1Cl)c1ccc2c(=O)n(-c3ccccc3)c(=O)[nH]c2c1,"inconclusive: 12.6 µM [inhibitor, partial curve, poor fit]"
10,COc1ccc(CCNC(=O)c2cc3sccc3n2Cc2ccc(Cl)cc2)cc1OC,"inconclusive: 35.5 µM [inhibitor, partial curve, poor fit]"
11,CCN(C(=O)Cn1cnc2onc(-c3ccc(F)cc3)c2c1=O)c1ccc(OC)cc1,"inconclusive: 12.6 µM [inhibitor, partial curve]"
12,Cc1oc2ncn(CC(C)C)c(=O)c2c1C(=O)NC(C)c1ccccc1 (stereo not drawn),inactive
13,COc1ccc(C(=O)Nc2ccc3c(c2)CCCN3C(=O)c2cccs2)c(OC)c1,"inconclusive: 31.6 µM [inhibitor, single point]"
14,Cc1cccc(-n2ccnc2SCC(=O)Nc2cccc3ccccc23)c1C,"inconclusive: 39.8 µM [inhibitor, single point]"
15,COc1ccc(-c2cc(C)no2)cc1S(=O)(=O)NCc1cccs1,"inconclusive: 17.8 µM [inhibitor, single point]"
16,COc1cc(CNC(=O)C2CCCCN2S(=O)(=O)c2ccc(F)cc2)cc(OC)c1OC (stereo not drawn),"inconclusive: 28.2 µM [inhibitor, single point]"
17,COc1ccc(CNC(=O)c2cc(-c3ccc(OC)cc3)nc3n[nH]c(-c4cccc([N+](=O)[O-])c4)c23)cc1,"inconclusive: 22.4 µM [inhibitor, single point]"
18,COc1ccc(CN2CCc3c(c(=O)n4ncc(C(=O)N5CCN(c6ccc(F)cc6)CC5)c4n3C)C2)cc1,active: 12.6 µM
19,Cc1ccc(-c2nc(CS(=O)CC(=O)N3CCN(c4cccc(Cl)c4)CC3)c(C)o2)cc1 (stereo not drawn),"inconclusive: 31.6 µM [inhibitor, single point]"

row,Compound,Potency
1,COc1cccc(C(=O)c2cn(CC(=O)NCc3ccccc3Cl)c3nc(C)ccc3c2=O)c1,"inconclusive: 39.8 µM [inhibitor, single point]"
2,Cc1c(Cl)cccc1NC(=O)Cn1cc(C(=O)c2cccs2)c2ccccc21,"inconclusive: 10 µM [inhibitor, partial curve]"
3,COc1cc2ncn(-c3cc(OCc4ccccc4S(C)(=O)=O)c(C#N)s3)c2cc1OC,"inconclusive: 24.3 µM [inhibitor, partial curve, poor fit]"
4,CC(=O)Nc1ccc([C@H](C)C(=O)Nc2ncc(C(C)C)s2)cc1,"inconclusive: 1.93 µM [inhibitor, full curve]"
5,CC(C)CN(CC(C)C)S(=O)(=O)c1ccc(C(=O)Nc2sc3c(c2C(N)=O)CC(C)(C)NC3(C)C)cc1,"inconclusive: 20 µM [inhibitor, partial curve, poor fit]"
6,COc1ccc(-c2nc(CNS(=O)(=O)c3ccc(Br)cc3)cs2)cc1,"inconclusive: 35.5 µM [inhibitor, single point]"
7,CCOc1ccccc1NC(=O)c1c(NCc2cccs2)sc2c1CCC(C)C2 (stereo not drawn),"inconclusive: 28.2 µM [inhibitor, single point]"
8,Cc1cccc(OCc2ccc(-c3nc(C#N)c(NCc4cccnc4)o3)o2)c1,"inconclusive: 22.4 µM [inhibitor, single point]"
9,O=C(CSc1nc(-c2cccc(F)c2)[nH]c1-c1ccccc1)Nc1ccc2c(c1)OCCO2,"inconclusive: 28.2 µM [inhibitor, single point]"
10,COc1ccccc1NC(=O)CN1C(=O)C2(SCC(=O)N2c2ccc(F)c(F)c2)c2ccccc21 (stereo not drawn),"inconclusive: 14.1 µM [inhibitor, partial curve, poor fit]"
11,COc1cc(NC(=O)CSc2nc(-c3ccco3)cc(C(F)(F)F)n2)cc(OC)c1OC,active: 12.6 µM
12,CC(NC(=O)Cc1ccc(NC(=O)N2CCSc3ncccc32)cc1)c1ccccc1 (stereo not drawn),"inconclusive: 14.1 µM [inhibitor, partial curve]"
13,CCCOc1ccc(C(=O)Nc2ccc(NC(=O)c3ccccc3)c(Br)c2)cc1,"inconclusive: 25.1 µM [inhibitor, single point]"
14,COc1ccc(C(=O)Nc2cc(C)c(O)c(-c3nc4ccccc4s3)c2)cc1OC,inactive
15,CCCCOC(=O)c1cccc(NC(=O)c2cc3ccccc3o2)c1,active: 10 µM
16,COc1cccc(CNCCSc2nnnn2C)c1OCc1ccccc1F,inactive
17,Cc1ccc(C)c(Cn2nc(-c3cc(C)ccc3C)ccc2=O)c1,"inconclusive: 28.2 µM [inhibitor, single point]"
18,CCOc1ccc(S(=O)(=O)NCC(c2ccco2)S(=O)(=O)c2ccc(F)cc2)cc1 (stereo not drawn),"inconclusive: 39.8 µM [inhibitor, single point]"
19,COc1cccc(N2CC(NC(=O)c3ccc(S(=O)(=O)N4CCCCC4)cc3)CC2=O)c1 (stereo not drawn),"inconclusive: 31.6 µM [inhibitor, single point]"

# Source: PubChem BioAssay AID1508623 (National Center for Advancing Translational Sciences (NCATS), 2021)
